Assay results from the supplement of paper PMC10369915.
Some of the results follow. No stated cut-off is given here; in the data, active = 3.2 or more and inactive = the rest. The signal is at background level for most entries.

B1: EGFR_HUMAN_1138 (peptide)
chain: TAVGNPEYLNTVQPT
B2: EGFR_HUMAN_1172 (peptide)
chain: ISLDNPDYQQDFFPK
B3: EGFR_HUMAN_1197 (peptide)
chain: STAENAEYLRVAPQS
B4: EGFR_HUMAN_998 (peptide)
chain: SPTDSNFYRALMDEE
B5: EIF3E_HUMAN_445 (peptide)
chain: ATQDSGFYGGGGGGG
B6: ELAVL1_HUMAN_200 (peptide)
chain: VALLSQLYHSPARRF
B7: ELAVL1_HUMAN_63_YA (peptide)
chain: VAGHSLGYGFVNAVT
B8: ACSL1_HUMAN_84 (peptide)
chain: DSDEPLVYFYDDVTT
B9: ELMO1_HUMAN_216 (peptide)
chain: VLNSHDLYQKVAQEI
B10: ELMO2_HUMAN_48 (peptide)
chain: WSLPNPEYYTLRYAD
B11: ELMO2_HUMAN_48_YA (peptide)
chain: WSLPNPEYATLRAAD
B12: ELP3_HUMAN_202 (peptide)
chain: GHTSNNIYEAVKYSE
B13: ACSL1_HUMAN_84_YA (peptide)
chain: DSDEPLVYFADDVTT
B14: EMD_HUMAN_105 (peptide)
chain: SYFTTRTYGEPESAG
B15: EMD_HUMAN_105_YA (peptide)
chain: SAFTTRTYGEPESAG
B16: EMD_HUMAN_155_YA (peptide)
chain: KDRERPMYGRDSAAQ
B17: EMD_HUMAN_41 (peptide)
chain: YEKKIFEYETQRRRL
B18: EMD_HUMAN_85 (peptide)
chain: KKEDALLYQSKGYND

What follows are binders tested against SHP2 C-SH2 domain E139D (assay: enrichment score (SH2-bound / input frequency) (ratio); bacterial display of known human phosphotyrosine sites (pTyr-Var adds point mutants) read by sequencing; higher = stronger binding; tyrosines were phosphorylated by kinases first). Settings: peptide library: Human pTyr.
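Further: displayed peptides selected on beads carrying the immobilized SH2 domain, with library peptides lacking any tyrosine serving as negative controls.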

| Binder | enrichment score |
| --- | --- |
| B1 | inactive: 0.426 |
| B2 | inactive: 0.696 |
| B3 | inactive: 0.522 |
| B4 | inactive: 0.979 |
| B5 | inactive: 0.802 |
| B6 | inactive: 0.637 |
| B7 | inactive: 0.95 |
| B8 | inactive: 1.02 |
| B9 | inactive: 0.705 |
| B10 | inactive: 1.19 |
| B11 | active: 3.57 |
| B12 | inactive: 0.751 |
| B13 | inactive: 1.3 |
| B14 | inactive: 0.786 |
| B15 | inactive: 0.55 |
| B16 | inactive: 1.76 |
| B17 | inactive: 0.951 |
| B18 | inactive: 0.853 |

The binders below were run against SHP2 C-SH2 domain wild-type in the same assay as above. Settings: peptide library: Human pTyr.

| Binder | enrichment score |
| --- | --- |
| B1 | inactive: 0.591 |
| B2 | inactive: 0.571 |
| B3 | inactive: 0.551 |
| B4 | inactive: 0.991 |
| B5 | inactive: 0.538 |
| B6 | inactive: 0.601 |
| B7 | inactive: 0.804 |
| B8 | inactive: 0.944 |
| B9 | inactive: 0.723 |
| B10 | inactive: 1.15 |
| B11 | active: 7.29 |
| B12 | inactive: 0.787 |
| B13 | inactive: 0.983 |
| B14 | inactive: 0.818 |
| B15 | inactive: 0.489 |
| B16 | inactive: 1.08 |
| B17 | inactive: 0.815 |
| B18 | inactive: 0.804 |

These binders were tested against SHP2 N-SH2 domain L43F in the same assay as above. Settings: peptide library: Human pTyr.

| Binder | enrichment score |
| --- | --- |
| B1 | inactive: 0.683 |
| B2 | inactive: 0.628 |
| B3 | inactive: 0.496 |
| B4 | inactive: 0.877 |
| B5 | inactive: 0.584 |
| B6 | inactive: 0.705 |
| B7 | inactive: 0.897 |
| B8 | inactive: 1.03 |
| B9 | inactive: 0.721 |
| B10 | inactive: 1.18 |
| B11 | inactive: 0.728 |
| B12 | inactive: 0.783 |
| B13 | inactive: 1.13 |
| B14 | inactive: 0.707 |
| B15 | inactive: 0.494 |
| B16 | inactive: 1.14 |
| B17 | inactive: 1.43 |
| B18 | inactive: 0.741 |

The binders below were run against SHP2 N-SH2 domain T42A in the same assay as above. Settings: peptide library: Human pTyr.

| Binder | enrichment score |
| --- | --- |
| B1 | inactive: 0.6 |
| B2 | inactive: 0.829 |
| B3 | inactive: 0.617 |
| B4 | inactive: 0.947 |
| B5 | inactive: 0.531 |
| B6 | inactive: 0.772 |
| B7 | inactive: 0.882 |
| B8 | inactive: 0.968 |
| B9 | inactive: 0.722 |
| B10 | inactive: 1.16 |
| B11 | inactive: 0.662 |
| B12 | inactive: 0.702 |
| B13 | inactive: 0.985 |
| B14 | inactive: 0.82 |
| B15 | inactive: 0.553 |
| B16 | inactive: 1.3 |
| B17 | inactive: 0.856 |
| B18 | inactive: 0.803 |

The binders below were run against SHP2 N-SH2 domain T52S in the same assay as above. Settings: peptide library: Human pTyr.

| Binder | enrichment score |
| --- | --- |
| B1 | inactive: 0.605 |
| B2 | inactive: 0.615 |
| B3 | inactive: 0.632 |
| B4 | inactive: 1.26 |
| B5 | inactive: 0.491 |
| B6 | inactive: 0.633 |
| B7 | inactive: 0.809 |
| B8 | inactive: 1.2 |
| B9 | inactive: 0.794 |
| B10 | inactive: 1.21 |
| B11 | inactive: 0.758 |
| B12 | inactive: 0.921 |
| B13 | inactive: 1.14 |
| B14 | inactive: 0.859 |
| B15 | inactive: 0.657 |
| B16 | inactive: 1.3 |
| B17 | inactive: 0.975 |
| B18 | inactive: 0.964 |

The binders below were run against SHP2 N-SH2 domain wild-type in the same assay as above. Settings: peptide library: Human pTyr.

| Binder | enrichment score |
| --- | --- |
| B1 | inactive: 0.541 |
| B2 | inactive: 0.637 |
| B3 | inactive: 0.61 |
| B4 | inactive: 1.26 |
| B5 | inactive: 0.623 |
| B6 | inactive: 0.871 |
| B7 | inactive: 0.929 |
| B8 | inactive: 1.05 |
| B9 | inactive: 1.03 |
| B10 | inactive: 1.15 |
| B11 | inactive: 0.589 |
| B12 | inactive: 0.811 |
| B13 | inactive: 1.22 |
| B14 | inactive: 0.692 |
| B15 | inactive: 0.586 |
| B16 | inactive: 1.31 |
| B17 | inactive: 1.26 |
| B18 | inactive: 1.01 |
